# Experimental data: publication PMC4336329 (PLoS ONE, 2015)
# The campaign covered roughly 310,000 compounds. About 14,000 (4.5%) showed an effect of 50% or more. The effect is printed as a negative number. The list shows a part of the results.
# Molecular target: human ether-à-go-go-related gene (hERG) potassium channel (human, UniProt Q12809)
# Assay: primary screen, population patch clamp on CHO cells stably expressing hERG
# 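Also: peak tail current of the secondary pulse compared with the same well before compound.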
# Sequence of human ether-à-go-go-related gene (hERG) potassium channel (Q12809 whole entry, looked up): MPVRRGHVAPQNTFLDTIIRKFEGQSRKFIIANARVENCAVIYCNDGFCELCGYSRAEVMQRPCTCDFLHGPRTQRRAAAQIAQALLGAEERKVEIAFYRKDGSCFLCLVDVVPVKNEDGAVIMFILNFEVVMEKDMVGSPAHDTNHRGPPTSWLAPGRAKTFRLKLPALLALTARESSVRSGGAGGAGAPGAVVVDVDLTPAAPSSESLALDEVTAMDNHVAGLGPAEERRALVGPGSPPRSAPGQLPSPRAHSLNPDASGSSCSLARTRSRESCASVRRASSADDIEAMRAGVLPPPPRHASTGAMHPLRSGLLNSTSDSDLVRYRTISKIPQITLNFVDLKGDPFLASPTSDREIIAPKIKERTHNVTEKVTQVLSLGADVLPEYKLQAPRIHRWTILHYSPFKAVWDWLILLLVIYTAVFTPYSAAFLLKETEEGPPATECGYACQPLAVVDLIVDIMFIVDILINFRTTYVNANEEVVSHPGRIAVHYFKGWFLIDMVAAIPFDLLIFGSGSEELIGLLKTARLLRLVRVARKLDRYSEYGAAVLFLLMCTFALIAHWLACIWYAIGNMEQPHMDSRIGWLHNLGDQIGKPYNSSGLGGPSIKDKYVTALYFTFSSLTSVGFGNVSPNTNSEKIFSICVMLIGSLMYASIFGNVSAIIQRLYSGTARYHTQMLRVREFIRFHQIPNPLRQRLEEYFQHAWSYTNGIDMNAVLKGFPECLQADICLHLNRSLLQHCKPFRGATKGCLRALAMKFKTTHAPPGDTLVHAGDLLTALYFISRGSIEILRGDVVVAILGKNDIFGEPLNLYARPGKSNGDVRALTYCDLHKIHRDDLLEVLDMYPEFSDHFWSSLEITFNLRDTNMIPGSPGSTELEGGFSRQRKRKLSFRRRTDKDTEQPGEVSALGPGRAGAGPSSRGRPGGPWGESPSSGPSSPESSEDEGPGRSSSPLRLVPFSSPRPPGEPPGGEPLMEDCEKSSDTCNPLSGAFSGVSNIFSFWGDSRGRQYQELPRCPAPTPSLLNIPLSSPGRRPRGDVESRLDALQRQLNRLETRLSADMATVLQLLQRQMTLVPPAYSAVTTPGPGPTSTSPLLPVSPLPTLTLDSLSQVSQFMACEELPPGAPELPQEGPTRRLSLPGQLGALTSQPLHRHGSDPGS
row,SMILES,"hERG current change (%, negative = inhibition) at 10uM [%]"
1,Nc1ccnn1-c1ccccc1,16.2
2,COc1ccccc1/C=C/C(=O)OCC(=O)c1cc(C)n(C)c1C,-0.348
3,COCc1cc(CN2CCN(Cc3ccsc3)C(CCO)C2)ccc1OC (stereo not shown),-82.9
4,Cc1ccc(-c2[nH]nc3c2C(c2ccccc2OC(=O)N2CCOCC2)C(C#N)=C(N)O3)cc1 (stereo not shown),-6.33
5,CSCCC(NC(=O)c1cccc(C)c1)C(=O)OCC(=O)Nc1c(C)nn(-c2ccccc2)c1C (stereo not shown),-15.5
6,CCOC(=O)c1ccc(NC(=O)c2nc[nH]c2C(=O)N2CCN(c3ccccc3)CC2)cc1,3.29
7,COc1ccc(S(=O)(=O)NCc2cccnc2)cc1OC,17.1
8,NS(=O)(=O)c1ccc(CCNC(=O)c2ccccc2F)cc1,-2.22
9,O=[N+]([O-])c1ccc(-c2nc(Nc3cccc(O)c3)c3ccccc3n2)cc1,18.1
10,c1ccc2[nH]c(CN3CCN(c4ncnc5c4oc4ccccc45)CC3)nc2c1,-73.1
11,C=CCn1c(SCc2c(C(=O)OC)sc(N)c2C(=O)OC)nnc1-c1ccc(Cl)cc1,-58.1
12,Cl.O=c1cc[nH]c2c1ccc1c(=O)cc[nH]c12,30.8
13,CN(CC(=O)Nc1ccccc1Br)C(=O)c1cc2c(s1)CCCCC2,-1.74
14,Cc1cc(O)c2c(C)c(CC(=O)N3CCN(C(=O)C4COc5ccccc5O4)CC3)c(=O)oc2c1 (stereo not shown),-28
15,C[C@H](OC(=O)N1CCN(C(c2ccccc2)c2ccccc2)CC1)[C@@H]1O[C@@]2(C)CCC[C@H]1O2,-0.658
16,COc1ccc(N2C(=O)c3ccccc3NC2c2ccc(OC)c(COc3ccccn3)c2)cc1 (stereo not shown),-16.6
17,COC(=O)c1ccc(/C=N/OCC(=O)NC2CCCCCCC2)cc1,-2.92
18,Cc1cc(C)cc(N(CC(=O)Nc2c(C)n(C)n(-c3ccccc3)c2=O)S(C)(=O)=O)c1,2.85
19,CC1CN(S(=O)(=O)c2ccc(C(=O)Nc3ccc(S(=O)(=O)Nc4ncccn4)cc3)cc2)CC(C)O1 (stereo not shown),9.93
20,CN(C)c1cccc(C(=O)OC(C(=O)Nc2ccc([N+](=O)[O-])cc2Br)c2ccccc2)c1 (stereo not shown),-10.1
21,Cc1nn(C)cc1CNC(=O)c1cc2n(n1)C(C(F)(F)F)CC(c1cccs1)N2 (stereo not shown),-0.608
22,CC(NC(=O)/C=C/c1ccco1)c1nc2ccccc2n1Cc1ccccc1F (stereo not shown),0.704

row,SMILES,"hERG current change (%, negative = inhibition) at 10uM [%]"
1,CN(Cc1ccc(Cl)cc1)C(=O)c1cc(S(=O)(=O)N2CCOCC2)ccc1N1CCCC1,-72.8
2,CCOC(=O)c1c(C)c(C#N)c2c3ccccc3ccn12,9.73
3,CN1C2CCC1CC(NC(=O)c1cccc(C(F)(F)F)c1)C2 (stereo not shown),9.37
4,O=C(Cc1ccc([N+](=O)[O-])cc1)NC1CCCCCC1,7.55
5,CCOC(=O)[C@@H]1[C@H]2COc3ccccc3[C@@H]2N2C(=O)N(c3ccccc3)C(=O)[C@@]12C,11.4
6,CC(=O)Oc1ccccc1C(=O)OCCN=C1NS(=O)(=O)c2ccccc21,19.3
7,COc1ccccc1NC(=O)CN(C)S(=O)(=O)c1ccc(F)cc1,-8.56
8,COc1ccc(/C(N)=N/OC(=O)c2ccc3c(c2)OCO3)cc1,14.6
9,Cc1cc(C)nc(N/N=C/c2cc3c(cc2[N+](=O)[O-])OCO3)n1,24
10,CC(C)N(C(=O)CSc1nc2ccccc2c(=O)[nH]1)C(C)C,6.12
11,O=C(c1ccc(Cl)cc1Cl)N1CCC(c2nc3c(nnn3Cc3ccco3)c(=O)[nH]2)CC1,-69
12,O=S(=O)(c1ccccc1F)N1CCN(C(=S)NCc2ccccc2)CC1,-4.25
13,CCCn1c(N)c(N2CCCCC2)c(=O)n(CC(=O)Nc2ccccc2C)c1=O,14.6
14,Cn1c(SCC(=O)Nc2ccc3c(c2)OCCO3)nnc1C1CC1,18.5
15,NC(=O)C1CCN(CC(O)CSc2ccccc2)CC1 (stereo not shown),-0.00192
16,COC(=O)C1=C(c2ccc(C(C)=O)cc2)C[C@@H]2CC[C@H]1N2C(=O)NCc1ccc2c(c1)OCO2,-37.3
17,CCc1cccc(NC(=O)C2CCCC2)c1,22.7
18,O=C(Cn1cnc2c(nnn2-c2ccccc2)c1=O)N1CCC(Cc2ccccc2)CC1,-47.6
19,O=C(NNC(=O)c1cc(Br)c(Br)s1)c1csc(N2CCOCC2)n1,23.9
20,COc1ccc(N2CCN(CCNC(=O)c3ccc4c(c3)[nH]c(=S)n3c5ccccc5nc43)CC2)cc1,17
21,CCN(CC)C(=O)COc1ccc(N(C)S(=O)(=O)c2ccc(NC(C)=O)cc2)cc1,-7.5
